Experimental data published in PubChem BioAssay (Tox21).
Several values for one entry are separate records, joined by “and”; a condition that tells them apart may be missing. Identical values can stand only once. Inconclusive means that the source gave no clear call. Such entries were picked first, then a sample of the others. Potencies beside an inconclusive call are fits to weak or partial responses and may not hold up. More than one record can exist for a structure, and the calls need not agree. Activity calls are given as the source filed them. Calls follow the shape of the dose curve; as a rule, active = well fitted cell-killing curve with a large enough effect in the repeat runs; inconclusive = weak or mixed curves, or effect the other way; inactive = no such curve, though single readings can be large or run the other way.

Test: qHTS assay to identify small molecule antagonists of the thyroid receptor (TR) signaling pathway - cell viability counter screen (AID 743064); also: nearly all actives have a fitted effect of over 50% in size
Details: GH3.TRE-Luc viability, CellTiter-Fluor, 24 h; series mostly up to 70.3 µM
Procedure, shortened: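 In rat pituitary GH3.TRE-Luc reporter cells co-exposed to compound and 1 nM T3 for 23.5 h, cytotoxicity was assessed with CellTiter-Fluor in the same wells, read by fluorescence.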
Potency is read from the fitted curve at half-maximal effect; tags tell the direction and shape of the fitted curve.

| SMILES | Potency |
| --- | --- |
| CCOC(=O)C1=C[C@]2(CC)CCCN3CCc4c(n1c1ccccc41)[C@@H]32 | inconclusive: 21.1 µM [cytotoxic, partial curve, poor fit] and active: 9.44 µM |
| CC(O)C#CC(C)O (centres undefined) | inconclusive: 67.9 µM [cytotoxic, single point] |
| CN(C)c1ccc(N=Nc2ccccc2C(=O)O)cc1 | active: 15.4 µM |
| c1cc(C(c2ccc(OCC3CO3)cc2)c2ccc(OCC3CO3)cc2)ccc1OCC1CO1 (centres undefined) | active: 17.2 µM |
| CCCCCCCCCCCO | inactive and active: 30.6 µM |
| CCCCCCCCCCCCOC(=O)c1ccc(O)cc1 | active: 30.9 µM |
| O=Cc1ccccc1C=O | active: 10.6 µM and active: 2.43 µM |
| N=C1C=CC(=C(c2ccc(N)cc2)c2ccc(N)cc2)C=C1 | active: 9.69 µM |
| C=CC(=O)OCCOCC(CC)(COCCOC(=O)C=C)COCCOC(=O)C=C | inactive |
| CC(C)CCCCCCCCCCCCCCC(=O)O | inactive |
| CN1CCN(C2Cc3ccccc3Sc3ccc(Cl)cc32)CC1 (centres undefined) | active: 9.44 µM |
| CCCC(=O)OC[C@@H](OC(=O)CCC)[C@@H](OC(=O)CCC)[C@H](Cn1c2nc(=O)[nH]c(=O)c-2nc2cc(C)c(C)cc21)OC(=O)CCC | inconclusive: 13.3 µM [rising, partial curve] |
| C=C[C@](C)(O)CC[C@@H]1[C@@]2(C)CCCC(C)(C)[C@@H]2CC[C@@]1(C)O | active: 43.3 µM |
| COC1=C(OC)C(=O)C(CCCCCCCCCCO)=C(C)C1=O | inconclusive: 33.5 µM [cytotoxic, single point] |
